# Measurements taken from PubChem BioAssay AID651820 (National Center for Advancing Translational Sciences (NCATS), 2012).
# The whole screen tested about 340,000 compounds, of which about 12,000 (3.5%) were called active. Inconclusive results, whose numbers are uncertain, are shown with a selection of clear calls. Calls come from the whole dose curve; as a rule, active = well fitted inhibition curve with a large enough effect; inconclusive = small, poorly fitted or top-dose-only effect, or another doubt; inactive = no such curve, though single readings can be large or run the other way. Potencies of inconclusive entries are left out as doubtful fits.
# Experiment: qHTS Assay for Inhibitors of Hepatitis C Virus (HCV)
# Conditions: Huh7.5.1 HCVcc-Cre (HCVcc is cell-culture hepatitis C virus) infection, luciferase reporter, 44 h; activity change, negative = inhibition: at 41.8 µM (top of the series) unless noted
# Summary of the method: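 Cells (1,000/well) were plated 4 h before compound, then infected with HCVcc-Cre virus (~0.5 moi). After 44 h further culture, infection was read as luciferase luminescence following a 15 min substrate incubation at room temperature.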
# % is set by controls: 0 for no effect and ±100 for the full control effect; potency is the fitted concentration of half-maximal effect; tags give direction and shape of the fitted curve.
Compound,Potency,"activity change, negative = inhibition"
O=C(Nc1cccc(-c2nc3ccccc3s2)c1)c1cc(-n2cnnc2)ccc1Cl,active: 12.6 µM,
CCOC(=O)C1(CC2CC2)CCN(Cc2cn(C)c3ccccc23)CC1,active: 10 µM,
CCN(c1ccccc1)S(=O)(=O)c1ccc(OC)c(NC(=O)Cc2ccc(OC)c(OC)c2)c1,active: 6.31 µM,
Cc1cc(=O)n2c3ccccc3n(CC(O)CN3CCN(Cc4ccccc4)CC3)c2c1C#N (stereo unspecified),"inconclusive [inhibitor, full curve]",
CC(C)c1ccc(S(=O)(=O)N2CCC(C(=O)NCC3(N(C)C)CCCCC3)CC2)cc1,"inconclusive [inhibitor, single point]",
Cc1cc(/C=C2\SC(=S)N(Cc3ccco3)C2=O)c(C)n1-c1cccnc1,"inconclusive [inhibitor, full curve]",
O=C(/C=C\c1cn(-c2ccccc2)nc1-c1cccs1)N1CCOCC1,"inconclusive [inhibitor, single point]",
O=C(NCC(=O)N(Cc1ccccc1)C(C(=O)NC1CCCC1)c1ccco1)c1ccco1 (stereo unspecified),inactive,
O=C(O)CCN(CCC(=O)O)S(=O)(=O)c1ccccc1,inactive,
COc1ccc(N=C2NC(=O)/C(=C/C=C/c3ccccc3)S2)cc1,"inconclusive [inhibitor, single point]",
CN(C(=O)c1cccc(NC(=O)C2CCCN(C(=O)OC(C)(C)C)C2)c1)C1CCCC1 (stereo unspecified),"inconclusive [inhibitor, single point]",
CC(NS(=O)(=O)c1ccc(Cl)cc1)C(c1cccs1)N1CCN(C)CC1 (stereo unspecified),"inconclusive [inhibitor, partial curve]",
CCOC(=O)c1c(-c2ccccc2)oc2ccc(O)c(CN3CCN(C)CC3)c12,active: 12.6 µM,
C=CCN1C(=O)/C(=C\c2ccco2)C(C(=O)OC)=C1C,"inconclusive [inhibitor, partial curve]",
CC(C)(C)NNC(=S)Nc1cccc(C(F)(F)F)c1,"inconclusive [inhibitor, single point]",
COc1ccc(CN2CCN(C3CCOCC3)CC2CCO)c(C)c1C (stereo unspecified),inactive,
COc1ccc(OC)c(CC(=O)O)c1,inactive,
O=c1c2ccccc2nnn1CSc1nnc(-c2cccnc2)n1-c1ccccc1F,inactive,
COc1ccccc1C/C(N)=N/OC(=O)c1cccs1,"inconclusive [inhibitor, single point]",
Cc1cc(OC(C)C(=O)NCC(O)c2ccccc2)c2c(C)c(C)c(=O)oc2c1 (stereo unspecified),"inconclusive [inhibitor, partial curve]",
CCOC(=O)c1ccccc1NS(=O)(=O)c1ccc(OC)cc1,"inconclusive [inhibitor, partial curve]",
Cc1ccc(-n2c3nc(=O)[nH]c(=O)c-3cc3cc([N+](=O)[O-])ccc32)cc1,inactive,
O=C(CCNNC(=O)c1ccncc1)NCc1ccccc1,inactive,
COc1ccc(NC(=O)CSc2ccc(-c3ccco3)nn2)cc1OC,"inconclusive [inhibitor, full curve, poor fit]",

Compound,Potency,"activity change, negative = inhibition"
COc1ccc2nc(NC(=O)C3CCN(S(=O)(=O)c4cccnc4)CC3)sc2c1,"inconclusive [inhibitor, single point]",
COc1ccc(C(=O)/C(C#N)=N/Nc2cccc([N+](=O)[O-])c2)cc1,active: 11.2 µM,
CC(CNC(=O)CCn1c(=O)c2cccn2c2ccc(F)cc21)c1ccccc1 (stereo unspecified),"inconclusive [inhibitor, single point]",
O=C(c1ccc(NS(=O)(=O)c2cccc([N+](=O)[O-])c2)cc1)N1CCCCCC1,"inconclusive [inhibitor, single point]",
COc1cc(/C=N/NC2=NC(C)(C)Cc3ccccc32)cc(OC)c1OC,inactive,
Cc1ccc2c(c1)N(CC(=O)NC1CCCC1)C(=O)C(C)O2 (stereo unspecified),inactive,
O=[N+]([O-])c1cccnc1N1CCC(c2cc(-c3ccc(Cl)cc3Cl)n[nH]2)CC1,active: 22.4 µM,
COCCOC(=O)c1c(NC(=O)CN2c3ccccc3CC2C)sc(C(N)=O)c1C (stereo unspecified),"inconclusive [inhibitor, full curve]",
COc1ccc(CCNC(=O)CCN2C(=O)COc3ccccc32)cc1OC,inactive,
O=C(CCNC(=O)c1ccc(Br)cc1)NNC(=O)c1ccccc1O,"inconclusive [inhibitor, partial curve]",
COc1ccc(C(=O)c2ccc(N(C)C)cc2)c(OC)c1,"inconclusive [inhibitor, partial curve, poor fit]",
Cn1nc(C(=O)Nc2nc3ccc(S(C)(=O)=O)cc3s2)ccc1=O,inactive,
COc1ccc(CN2CCNC(=O)C2CC(=O)N(C)Cc2nccn2C)cc1OC (stereo unspecified),inactive,
C/C=C\C=C\C(=O)Nc1cccc(C2=NOC3(C2)C[C@H](C(N)=O)N(C(=O)c2ccccc2C(=O)c2ccccc2)C3)c1 (stereo partly specified),"inconclusive [inhibitor, full curve]",
C[C@@H]1CN(Cc2nc(-c3cccs3)no2)C[C@H](C)O1,inactive,
CCCCNC(=O)c1ccc(Cn2c(=S)[nH]c3c([nH]c4ccc(OC)cc43)c2=O)cc1,"inconclusive [inhibitor, single point]",
CCc1nc2ccccc2c(C(=O)OCC(=O)Nc2ccc(S(=O)(=O)N3CCOCC3)cc2)c1C,active: 11.2 µM,
Oc1ccc2ccccc2c1CN1CCN(c2ccccc2)CC1,inactive,
CCCNC(=O)c1ccc2c(c1)ncn2-c1ccccc1OC,inactive,
CCCCCn1c(=S)[nH]c2cc(C(=O)N3CCN(C(=O)OCC)CC3)ccc2c1=O,inactive,
CC1CC2=C(NC(=S)NC2c2ccc(F)cc2)/C(=C/c2ccc(F)cc2)C1 (stereo unspecified),"inconclusive [inhibitor, partial curve]",
COc1cc(/C=C/C(=O)OCC(=O)NC2CC2)cc(S(=O)(=O)N2CCc3ccccc32)c1OC,"inconclusive [inhibitor, single point]",
CCOP(=O)(OCC)/C(C#N)=C/c1ccc(-c2ccc(F)cc2F)o1,"inconclusive [inhibitor, single point]",
Cc1ccc(C(=O)CN2C(=O)NC3(CCCCCC3)C2=O)c(C)c1,"inconclusive [inhibitor, full curve]",

Compound,Potency,"activity change, negative = inhibition"
Oc1cccc(-c2nc3ccccc3s2)c1,"inconclusive [inhibitor, partial curve]",
O=C(N/N=C/C=C\c1ccccc1[N+](=O)[O-])c1ccncc1,inactive,
COc1ccc(OC)c(-n2nnnc2SCC(=O)N2CCN(C(=O)c3ccco3)CC2)c1,"inconclusive [inhibitor, partial curve]",
COc1ccc(-c2csc(NC(=O)Cc3ccccc3F)n2)c(OC)c1,"inconclusive [inhibitor, single point]",
COc1ccc(CCC(C)NCCc2ccc(Cl)cc2Cl)cc1 (stereo unspecified),"inconclusive [inhibitor, single point]",
C=CCn1c(SCC(=O)N2CCN(c3ccc(F)cc3)CC2)nnc1-c1cccs1,"inconclusive [inhibitor, single point]",
NC(=O)CC(NC(=O)c1ccccc1)c1ccc(NCCc2cccc(F)c2)c([N+](=O)[O-])c1 (stereo unspecified),"inconclusive [inhibitor, single point]",
O=C(Nc1sc2c(c1C(=O)NCCO)CCCC2)c1ccco1,"inconclusive [inhibitor, full curve, poor fit]",
COc1cc(NC(=O)c2c3c(nc4ccccc24)CCC3)cc(OC)c1,inactive,
O=C(Nc1cnn(Cc2ccc(Cl)cc2Cl)c1)c1cc(-c2cccs2)on1,"inconclusive [inhibitor, partial curve]",
c1ccc(C(c2nnnn2Cc2ccco2)N2CCN(c3nc4ccccc4s3)CC2)cc1 (stereo unspecified),"inconclusive [inhibitor, single point]",
CCN(CC)c1ccc(NC(=O)c2cnccn2)cc1S(=O)(=O)Nc1ccc(OC)cc1,active: 8.91 µM,
NCCC(=O)N1c2ccccc2Sc2ccc(Cl)cc21,"inconclusive [inhibitor, partial curve]",
CC(=O)N1CCN(c2ccc(Nc3ncnc4c3oc3ccccc34)cc2)CC1,"inconclusive [inhibitor, single point]",
COc1ccc2nc(-c3ccccc3)nc(SC)c2c1,active: 11.2 µM,
CCC[C@@H](CN[C@@H](CNC)[C@H](C)CC)NCC1CCC(C(C)(C)C)CC1 (stereo partly specified),active: 7.94 µM,
Cc1cc(C)nc(SCC(=O)Nc2ncc(Cc3ccc(Cl)c(Cl)c3)s2)n1,"inconclusive [inhibitor, single point]",
CC[N+](CC)(CC#Cc1ccccc1)CC#Cc1ccccc1,inactive,
Cc1ccc(C(=O)N(CC(C)C)c2nc3ccccc3s2)o1,"inconclusive [inhibitor, single point]",
O=C(NC1CC1)c1ccc(NC(=O)C2CCC2)cc1,"inconclusive [inhibitor, partial curve, poor fit]",
CCN(CC(=O)Nc1ccccc1OC)C(=O)c1ccc(N(C)S(=O)(=O)c2ccc(C)cc2)cc1,"inconclusive [inhibitor, single point]",
CCC1=Nc2cc(C(=O)O)ccc2Sc2ccccc21,,inactive: 7.21% [at 8.37 µM]
CCN(Cc1ccccc1)C(=O)CCS(=O)(=O)c1cc2c(cc1Cl)NC(=O)CO2,inactive,
